# Laboratory results reported in the supplement of paper PMC3334620.
# Over roughly 33,000 sequences, “E-score (-0.5 to 0.5)” has its median near -0.016; the highest 2% begin near 0.31. This is one part of the list.
# Target: Cst6 (UniProt P40535)
# Test: PBM E-score (8-mer binding enrichment) (E-score (-0.5 to 0.5)); higher = stronger / more preferred TF binding; most listed sequences are background and not binding sites
# Conditions: protein concentration: 200 nM; construct: GST-DNA-binding domain
# In short: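 Masliner-normalised scans of fluorescent anti-GST signal were the basis for scoring. That signal came from GST-tagged yeast transcription factors applied at about 100-200 nM to double-stranded universal all-10-mer Agilent arrays on fresh or once-stripped slides. Each ungapped eight-base word, pooled with its reverse complement, received an E-score from the Universal PBM Analysis Suite.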
row,Sequence,PBM E-score
1,AATCAGTA,0.187
2,GCGATGTA,0.0729
3,AGTACCAG,-0.0881
4,AGTCTGTG,-0.0706
5,GGACGTGA,-0.0809
6,ACCTCTGC,-0.244
7,AATGCTTC,0.0171
8,GAGTAAAC,-0.0479
9,ATTACGTA,0.49
10,GTTAGAAC,0.0107
11,AGCTCGGG,-0.13
12,AATGAGAC,-0.272
13,TCAACCAA,0.0196
14,ACCTTGAT,0.0175
15,TGATGTAA,0.488
16,GTGGTTCA,0.0445
17,TAACCGGA,-0.0619
18,CACTACAC,-0.0303
19,CGTTTGGA,-0.0813
20,CTTTGGCC,-0.151
21,CGGGCATA,-0.156
22,AAGCTGCG,-0.226
23,CTCAAATC,-0.023
24,AACCAAAG,0.0508
25,CCACGGCC,-0.0591

row,Sequence,PBM E-score
1,CCAGGGGG,-0.363
2,CCGGGGTA,-0.26
3,AATGTGGG,-0.0891
4,ACTGGCCC,-0.224
5,GCGAACAA,0.143
6,GCGTCTCA,0.00483
7,ACCGCCCA,-0.216
8,AAGAGACA,0.0585
9,AACAGGGC,-0.103
10,ACCTACTA,0.138
11,TTACCGAA,0.156
12,TGATATCA,0.426
13,ATTATGCG,0.217
14,ATAGGATC,-0.103
15,ACTGTGAG,0.0126
16,CTATCACA,0.0487
17,GCTTACCA,0.124
18,CAAACCTA,-0.0463
19,AGCATTCC,-0.0762
20,CTTTTTTA,0.161
21,CAACATAG,-0.00641
22,AGCTATAA,0.0927
23,CGGGGAAG,-0.125
24,ATGAGCAC,-0.0166
25,ACGTGAAG,0.0251

row,Sequence,PBM E-score
1,CCACGTAC,-0.0887
2,CAGCGAGA,-0.193
3,AAAAATCC,0.0838
4,GATCCAGC,-0.143
5,ATTCTGGC,0.025
6,AAAGAAAC,0.15
7,GGCCTAAC,-0.142
8,CAACTGCC,0.0713
9,GCTAGGGA,-0.217
10,ATCCACCC,-0.236
11,TCAGTGAA,-0.00204
12,ACCTGGCG,-0.241
13,CCATGATC,-0.113
14,ACTGATTG,-0.00763
15,AACCTATT,0.0548
16,AGGGAACG,-0.184
17,CCCTAAGA,-0.214
18,CCAAGACC,-0.183
19,ATCGTTCA,0.0569
20,AGATATAA,0.153
21,CTTTTTCA,0.0172
22,CTAAAGAC,-0.0173
23,GAATTCAA,0.16
24,GGCATCCA,-0.213
25,CCGAGGTA,-0.27

row,Sequence,PBM E-score
1,GGTTAGCA,-0.111
2,AAAAATGC,0.101
3,GAAGCTTC,-0.297
4,CTATTCGA,0.0201
5,CTTGCCGC,-0.0174
6,CAAAGTCA,0.072
7,AGATGCAC,-0.148
8,AAGTATTG,0.134
9,CCCAGTTC,-0.0847
10,GGAGCCGA,-0.16
11,TATTTGCA,0.183
12,TGTCCACA,-0.0456
13,ACACTGAT,0.0166
14,GTGTTTGA,0.235
15,GCTCCGAA,-0.0443
16,AGTATTCC,0.0547
17,CAGCACTA,-0.18
18,AATCTTCA,0.243
19,CGACCCAC,-0.31
20,AGGAAGCC,-0.171
21,AAGCATTG,-0.177
22,GAACGGAC,-0.125
23,AGGAGATC,-0.125
24,AGCCTTAA,-0.0543
25,AAGGGTAC,-0.0378

row,Sequence,PBM E-score
1,AACAAGTG,-0.0672
2,GTGGAGCA,-0.253
3,CATCTGAC,-0.0499
4,CTACTTAC,0.127
5,AATTCTGT,0.0776
6,GCCGAACC,-0.12
7,AACAATTA,0.302
8,GGTGGGAC,-0.298
9,AACTATCC,-0.194
10,AGCTATGC,-0.0507
11,CAATGGCA,-0.0216
12,CCAGTACC,-0.138
13,GAGTAGTA,0.0811
14,CCTACCCG,-0.167
15,CACATAGC,-0.0333
16,AGCCGGGG,-0.292
17,CGATCGAA,-0.0187
18,ATGGCGCA,0.0754
19,AATCCGCG,-0.00075
20,ACTATTTA,0.0648
21,GGTGTCCA,-0.159
22,ACTGAAAG,0.102
23,CCCTTGGA,-0.037
24,CCAGCGTA,-0.161
25,GCGTTTCA,-0.00465

row,Sequence,PBM E-score
1,CGTTACAC,0.0658
2,ATTACACC,0.089
3,CTACGCAC,-0.0813
4,GAGCGGGC,-0.172
5,AGGATGAA,-0.0458
6,ATGGGCAC,0.105
7,GCGCTCAC,-0.0942
8,ACAATGGG,0.0198
9,CGTCTGTA,0.0257
10,AGTATAAA,0.301
11,CCCGCGTA,-0.0745
12,TACCGGAA,-0.102
13,CTCGGTAC,-0.292
14,CCCGACAA,0.0133
15,CTAGGACC,-0.36
16,AGTAGAGA,0.0665
17,ACAGATCG,-0.00844
18,CTGCACGC,-0.263
19,AAGCCTAG,-0.0756
20,TGAGACCA,0.0312
21,ATCTGTTG,-0.0928
22,AGCTGCGG,-0.0814
23,GCGCTATA,0.0108
24,CACGTTAA,0.0603
25,GAAACCCA,0.0732

row,Sequence,PBM E-score
1,CTTAACAA,0.151
2,AGTCCCGG,-0.319
3,AAAGCTCA,0.0148
4,AGACAATC,0.11
5,AGAATCAC,0.15
6,CCACGTCG,-0.196
7,GCTTACTA,0.0286
8,ACAACGGG,0.00417
9,CGACTAGA,-0.184
10,CCAGGCTA,-0.407
11,ACTCACCG,0.0446
12,CGGAATCC,-0.227
13,CTCGTGCA,-0.103
14,CGCGATAC,-0.0135
15,AATCCATA,0.0862
16,CGTAGGAC,-0.146
17,GACACAAA,0.249
18,CCTTTCTA,0.116
19,ACAAGAAA,0.237
20,ACCAGGAC,-0.0872
21,AGGCGAGA,-0.16
22,AGAATGAG,-0.0205
23,GCGACTCA,-0.219
24,GGAACAAA,0.18
25,GAAAATTA,0.195

row,Sequence,PBM E-score
1,CAGGCTCG,-0.188
2,TCACGTGA,0.1
3,GTCCCAAA,-0.0736
4,CTAACTAC,-0.0492
5,CATTTGAC,0.12
6,CCGACGGA,-0.164
7,GTAGGACA,-0.0243
8,CTTGAGCA,-0.0965
9,ACGGCAAT,0.329
10,ATCCGGCC,-0.218
11,CTTGACAC,-0.012
12,GCCCTATA,0.0742
13,TAAAAAGA,0.204
14,ACGTGCGC,0.174
15,CAACGCCA,-0.0134
16,TTCCCAAA,0.0034
17,CATGCTGA,0.042
18,ATACGAGC,-0.00904
19,CATACTGG,-0.097
20,GTTCTGTA,0.0269
21,ACTTCAGG,-0.105
22,AGAACATA,0.0483
23,AAGGAACG,-0.036
24,ATCATACG,0.308
25,AGCCGCCG,0.155

row,Sequence,PBM E-score
1,ATACTGAA,0.115
2,AACACCTG,0.0999
3,CGTTGACC,0.0608
4,GAAGCATC,-0.145
5,CCAATGGA,-0.152
6,CAGCTGGC,-0.0549
7,CTTAACGC,-0.0467
8,ACCCCAGG,-0.327
9,CTGGAACC,-0.193
10,AACCAGCT,0.0683
11,AGTCAGAT,-0.0377
12,AGGCTATG,-0.166
13,CGTGATTA,0.196
14,GAGTTAAC,-0.0651
15,CCAGGCGC,-0.0802
16,ACGACGAC,-0.0559
17,GAACATCA,-0.098
18,GCTCGTCC,-0.154
19,ATGTGTAA,0.0549
